The source gives no read counts; variants with many changes may rest on few reads.

21 variants from the RNAGym collection of RNA variant scans (doi:10.7554/elife.90254) can be followed below.

To fix the notation:
B1: OR4K15 (parent)
chain: GUUAACGGUCAUAGGCCAUGGAAACUAGGAGCACCAUUUCGCUGCCAGUGAAGAAAUGAACAAAGAAAAUCUGGGCCAGGCAGGCAUCAAAAGAAAUAGUCUUGCGCUCAACCAGAAAGUCUGUAAUCAUUUUAAGGGUA

This series covers variants of B1. As to the kind of experiment: self-cleavage, relative activity (ratio to wild type); higher = more cleavage; in vitro, sequencing; the parent is a self-cleaving ribozyme.
Turning to GUUAACGGUCACAGGCCAUGGAAACUAGGAGCACCAUUUCGCUGCCAGUGAAGAAAUGAACAAAGAAGAUCUGGGCCAGGCAGGCAUCAAAAGAAAUAGACUUGCGCUCAACCAGAAAGUCUGUAAUCAUUUUAAGGGUA [U12C A68G U100A], the self-cleavage was 1.51.

Regarding GUUAACGGUCACAGGCCAUGGAAACUAGAAGCACCAUUUCGCUGCCAGUGAAGAAAUGAACAAAGAAAAUCUGGGCCAGGCAGGCAUCAAAAGAAAUAGUCUUGCGCUCAACCAGAAAGUCUGUAAUCACUUUAAGGGUA [U12C G29A U130C], the self-cleavage stood at 1.18. Then GUUAACGGUCACAGGCCAUGGAAACUAGGAGCACCAUUUCGCUGCCAGUGAAGAAAUGAACAAAGAAAAUCUGGGCCAGGCAGGCAUCAGAAGAAAUAGUCAUGCGCUCAACCAGAAAGUCUGUAAUCGUUUUAAGGGUA [U12C A90G U102A A129G], with 0.13. Then GUUAACGGUCACAGGCCAUGGAAACUAGGAGCACCAUUUCGCUGCCAGUGAAGAAAUGAACAAAGAAAGUCUGGGCCAGGCAGGCAUCAAAAGAAAUAGUCUUGUGCUCAACCAGAAAGUCUGUAAUCAUUUUAAGGGUA [U12C A69G C105U], with 0.18; and GUUAACGGUCACAGGCCAUGGAAACUAGGAGUACCAUUUCGCUGCCAGUGAAGAAAUGAACAAAGAAAAUCUGAGCCAGGCAGGCAUCAAAAGAAAUAGUCUUGCGCUCAACCAGAAAGUCUGUAAUCAUUUUAAUGGUA [U12C C32U G74A G136U], with 0.49; and GUUAACGGUCACAGGGCAUGGAAACUAGGAGCACCAUUUCGCUGCCAGUGAAGAAAUGAACAAAGAAAAUCUGGGCCAGGCAGGCAUCAAAAGAAAUAGUCUUGCGCUCAACCAGAAAGUCUGUAAUCAUUUUAAGGGUG [U12C C16G A140G], with 0.29. In the case of GUUAACGGUCACAGGCCAUGGAAACUAGGAGCACCAUUUCGCUGCCAGUGAAGAAAUGAACAAAGAAAAUCUGGGCCAGGCAGGCAUCAAAGGAAAUAGUCUUGCGCUCAACCGGAAAGUCUGUAAUCAUCUUAAGGGUA [U12C A92G A114G U131C], the self-cleavage amounted to 0.28.

As for GUUAACGGUCACAGGCCAUGGAAACUAGGAGCACCAUUUCGCUGCCAGUGAAGAAAUGAACAAAGAAAAUCUGGGCCGGGCAGGCAUCAAAGGAAAUAGUCUUGCGCUCAACCAGAAAGUCUGUAAUCAUUUUAAGGGUA [U12C A78G A92G], the self-cleavage was 0.18. Regarding GUUAACGGUCACAAGCCAUGGAAACUAGGGGCACCAUUUCGCUGCCAGUGAAGAAAUGAACAAAGAAAAUCUGGGCCAGGCAGGCAUCAAAAGAAAUAGUCUCGCGCUCAACCAGAAAGUCUGUAAUCAUUUCAAGGGUA [U12C G14A A30G U103C U133C], the self-cleavage is 1.37. Regarding GUUAACGGUCACAGGCCAUGGAAACUAGGAGCACCAUUUCGCUGCCAGUGAAGAAAUGAACAAAGAAAAUCUGGGCCAGGCAGGCAUCAAAAGAAAUAGUCUUGCGCUCAACCGGGAAGUCUGUAAUCAUUUUAAGGGUA [U12C A114G A116G], the self-cleavage was determined as 0.05. In the case of GUUAACGGUCACAGGCCAUGGAAACUAGGAGCACCAUUUCGCUGCCAGUGAAGAAAUGAACAAAGAAAAUCUGGGCCGGGCAGGCAUCAAAAGAAAUAGUCUUGCGCUCAACCAGAAAGUCUGUAAUUAUUUUAAGGGUA [U12C A78G C128U], the self-cleavage was found to be 0.34. Then GUUAACGGUCACAGGCCAUGGAAACUAGGAGCACCAUUUCGCUGCCAGUGAAGAAAUGAACAAAGAAAAUCUGGGCCAGGCAGGCAUCAAAAGAAAUAGUCUUGCGCUCAACCCGGAAGUCUGUAAUCAUUUUAAGGGUA [U12C A114C A116G], with 0.02. Then GUUAACGGUCACAGUCCAUGGAAACUAGGAGCACCAUUUCGCUGCCAGUGAAGAAAUGAACAAAGAAAAUCUGGGCCAGGCUGGCAUCAAAAGAAAUAGUCUUGCGCUCAACCAGAAAGUCUGCAAUCAUUUUAAGGGUA [U12C G15U A82U U124C], with 0.1; and GUUAACGGUCACAGGCCAUGGAAACUAGGAGCACCAUUUCGCUGCCAGUGAAGAAAUGAACAAAGAAGAUCUGGGCCAGGCGGGCAUCAAAAGAAAUAGUCUUGCGCUCAACCAGAAAGUCUGUAAUCAUUUUAAGGGUA [U12C A68G A82G], with 0.45. GUUAACGGUCACAGGCCAUGGAAACUAGGAGCACCAUUUCGCUGCCAGUGAAGAAAUGAACAAAGAAAAUCUGGGCCUGGCAGGCAUCAAAAGGAAUAGUCUUGCGCUCAACCAGAAAGUCUGUAAUCACUUUAAGGGUA [U12C A78U A94G U130C]: the self-cleavage was 0.09. As to GUUAACGGUCACAGGCCAUGGAAACUAGGAGCACCAUUUCGCUGCCAGUGAAGAAAUGAACAAAGAAAAUCUGGGCCAGGCAGGCAUCAAAGGAAAUAGUCUUGCGCUCAACCAGAAAGUCUGUAAUCAUUUUAGGGGUA [U12C A92G A135G], the self-cleavage is 1.65. As for GUUAACGGUCACAGGCCAUGGAAACUAGGAGCACCAUUUCGCUGCCAGUGAAGAAAUGAACAAAGAAAAUCUGGGCCAGGCAGGCAUCAGAAGAAAUAGUCUUGCGCUCAACCAGAAAGUCUGUAAUCAUUCUAAGGGUA [U12C A90G U132C], the self-cleavage worked out at 1.71. Then GUUAACGGUCACAGGCCAUGGAAACUAGGAGCACCAUUUCGCUGCCAGUGAAGAAAUGAACAAAGAAAAUCUGGGCCAGGCAGGCAUAAAAAGAAGUAGUCUAGCGCUCAACCAGAAAGUCUGUAAUCAUUUUAAGGGUA [U12C C88A A96G U103A], with 0.5; and GUUAACGGUCACAGGCCAUGGAAACUAGGAGCACCAUUUCGCUGCCAGUGAAGAAAUGAACAAAGAAAAUCUGGGCCAGGCAGGCAUCAAAAGAAAUAGUCUUGCGCUCGACCAGAAAGUCUGUAAUCAUUCUAAGGGUA [U12C A110G U132C], with 0.23; and GUUAACGGUCACAGGCCAUGGAAACUAGGAGCACCAUUUCGCUGCCAGUGAAGAAAUGAACAAAGAAAAUCUGGGCCAGGCUGGCAUCAAAAGAAAUAGUCAUGCGCUCAACCAGAAAGUCUGUAAUCAUUCUAGGGGUA [U12C A82U U102A U132C A135G], with 0.17. Then GUUAACGGUCACAGGCCAUGGAAACUAGGAGCACCAUUUCGCUGCCAGUGAAGAAAUGAACAAAGAAAAUCUGGGCCAGGCAGGCAUCAAAAGAAAUAGUCUUGCGCUCAACCAGAAAGUCUGUAAUCGUCUUAAGGGUA [U12C A129G U131C], with 0.7.
